# Experimental data reported in PubChem BioAssay AID624172 (National Center for Advancing Translational Sciences (NCATS), 2012).
# Out of some 380,000 compounds screened, about 25 (0.007%) were called active. This list was built around the results that the source calls inconclusive (neither active nor inactive); the mix of calls is not that of the screen. Calls come from the whole dose curve; as a rule, active = well fitted activation curve with a large enough effect; inconclusive = small, poorly fitted or top-dose-only effect; inactive = no such curve, though single readings can be large or run the other way. Potencies of inconclusive entries are left out as doubtful fits.
# Target: Glucagon-like peptide 1 receptor (Homo sapiens) (UniProt P43220)
# Test: qHTS of GLP-1 Receptor Agonists; for activation: % of control where 0% means no effect
# Settings: HEK293 GLP-1R CRE-luciferase, luminescence, 4-6 h, cells express a hypersensitive GLP-1R form; activation: at 45.6 µM (top of the series) unless noted
# Potency is the fitted concentration of half-maximal effect; tags give direction and shape of the fitted curve.
# UniProt P43220, sequence (P43220 whole entry, looked up): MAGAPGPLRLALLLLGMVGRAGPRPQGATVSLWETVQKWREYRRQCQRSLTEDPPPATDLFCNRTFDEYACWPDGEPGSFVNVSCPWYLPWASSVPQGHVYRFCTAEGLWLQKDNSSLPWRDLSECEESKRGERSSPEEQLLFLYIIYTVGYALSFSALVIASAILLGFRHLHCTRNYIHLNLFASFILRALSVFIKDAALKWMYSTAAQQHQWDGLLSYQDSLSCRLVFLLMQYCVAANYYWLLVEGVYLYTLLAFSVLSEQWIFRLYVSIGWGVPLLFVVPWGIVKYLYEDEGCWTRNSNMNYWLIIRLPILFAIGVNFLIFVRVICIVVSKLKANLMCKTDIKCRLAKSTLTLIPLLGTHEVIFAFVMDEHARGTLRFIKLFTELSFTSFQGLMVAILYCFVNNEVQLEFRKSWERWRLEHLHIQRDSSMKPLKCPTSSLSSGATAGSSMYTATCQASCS
Compound,activation,Potency
COc1ccc([C@H]2C[C@H](O)[C@@H](n3cc(-c4ccc(F)cc4)nn3)CN2C(=O)c2cccs2)cc1,inactive: -0.559%,
COc1cc2c(cc1OC)C(C)N(C(=O)c1cc3c(=O)oc4ccc(C)cc4c3s1)CC2 (configuration not stated),inactive: 1.2%,
O=C(O)CC1(CC(=O)Nc2ccc(C(F)(F)F)cc2)CCCC1,inconclusive: 39.4% [activator],
COc1ccc(CCN(C)C(=O)c2ccc(C)c(S(=O)(=O)N3CCCCC3)c2)cc1OC,,"inconclusive [activator, partial curve, poor fit]"
CCOC(=O)c1nnn(-c2nonc2N)c1-c1cccs1,,"inconclusive [activator, partial curve]"
Cc1ccc(Cn2cc(-c3ccccc3)nn2)cc1,,"inconclusive [activator, partial curve, poor fit]"
O=C(Nc1cccc(S(=O)(=O)NC2=NCCCCC2)c1)c1cc(-c2ccccc2Cl)nc2ccccc12,,"inconclusive [activator, partial curve, poor fit]"
COc1ccc(CSc2nnc(N)s2)cc1F,,"inconclusive [activator, partial curve, poor fit]"
CC(C)c1nc2oc3c(NCc4cccnc4)ncnc3c2c2c1CCC2,inactive: 23.8%,
CCN(CC)S(=O)(=O)c1ccc(N/N=C/c2cccnc2)nc1,inactive: 8.54%,
CCOc1cc(/C=C2/C(=O)ON=C2C)ccc1OCc1ccccc1F,,"inconclusive [activator, partial curve]"
COc1ccc(-c2cc(NC=O)c3ncc(-c4cccc(OC)c4)n3c2)cc1,inactive: 12.6%,
CN1CCN(CCCN2c3ccccc3Sc3ccccc32)CC1,inactive: -5.31%,
COc1ccc(Cl)cc1C(=O)CSc1nnnn1C1CCCC1,,"inconclusive [activator, partial curve, poor fit]"
CC(Sc1nnc(-c2ccc(Cl)cc2Cl)n1Cc1ccccc1)C(=O)Nc1nccs1 (configuration not stated),inactive: -3.83%,
CCOC(=O)C1C(=O)CC(=O)C(C(=O)OCC)C1c1ccc(O)cc1 (configuration not stated),inactive: -1.96%,
CCOC(=O)C1=C(CS(=O)(=O)c2ccc(Br)cc2)NC(=O)NC1c1ccccc1 (configuration not stated),inactive: -1.95%,
N#Cc1ccc(CN2CCN(C(=O)c3cn(Cc4ccccc4)nc3-c3cccnc3)CC2)cc1,inactive: 9.04%,
COc1cc2c(c3oc(-c4ccccc4)cc(=O)c13)C=CC(C)(C)O2,,"inconclusive [activator, single point]"
COc1ccccc1/C=N/NC(=O)CSc1ccc2ccccc2n1,,"inconclusive [activator, single point]"
O=C(NN=C(Cc1ccccc1)Cc1ccccc1)c1ccccc1O,inactive: 7.81%,
CCOc1ccc(C(=O)CC(C(=O)O)N2CCN(Cc3ccccc3)CC2)cc1 (configuration not stated),inactive: -3.33%,
COc1cc(/C=C(\C#N)c2nc3ccc(C)cc3[nH]2)cc([N+](=O)[O-])c1O,inactive: 16.8%,
CCCCN(Cc1ccccc1)C(=O)c1oc(=O)c2ccccc2c1-c1ccc(C)cc1,inactive: 1.04%,
Cc1ccc(C)c(S(=O)(=O)Nc2ccc3oc(C)c(C(=O)O)c3c2)c1,inactive: 2.32%,
CCOc1cc(S(=O)(=O)N2CCN(CC)CC2)ccc1Cl,inactive: -3.22%,

Compound,activation,Potency
CCSc1nc2cc(OC)c(OC)cc2c(=O)n1CC,,"inconclusive [activator, partial curve]"
CCCSc1nn2c(=O)c3ccccc3nc2s1,,"inconclusive [activator, full curve, poor fit]"
CC(=O)Oc1ccc2c(c1)O/C(=C\c1ccncc1)C2=O,inactive: 3.06%,
O=C(NCc1ccc(Cl)cc1Cl)Nc1ccccc1,,"inconclusive [activator, single point]"
COc1ccc(-c2csc(NC(=O)C3=NN(c4ccccc4)C(=O)CC3)n2)cc1,inactive: -4.57%,
Cc1nc2ccccc2n1/N=C/c1ccc([N+](=O)[O-])o1,inactive: -0.175%,
C=CCc1c(C)nc(SC)nc1Nc1ccc(C(C)=O)cc1,,"inconclusive [activator, single point]"
O=C(COC(=O)c1ccc(O)cc1O)Nc1cccc2ccccc12,inactive: -8.52%,
COc1ccc(-c2nc(-c3ccccc3OC)no2)cc1OC,,"inconclusive [activator, partial curve, poor fit]"
COc1ccc(Nc2nc(N)nc(CSc3nccc(C)n3)n2)cc1,,"inconclusive [activator, single point]"
COc1ccc2c(c1)c1c(c(=O)n(-c3cc(Cl)ccc3C)c(=O)n1Cc1ccc(F)cc1)n2C,inactive: 0.946%,
CCCSc1oc(-c2ccco2)nc1S(=O)(=O)c1ccc(C)cc1,,"inconclusive [activator, partial curve, poor fit]"
CCN(CC)C(=O)CSc1nc2sc3c(c2c(=O)n1CCOC)CCC3,inactive: -3.84%,
COc1cc2c(cc1OC)CN(C(=O)COc1ccccc1C#N)CC2,,"inconclusive [activator, partial curve, poor fit]"
COc1ccccc1NC(=O)C(=O)/C=C(\O)c1ccccc1,inactive: 8.58%,
O=C(Nc1cccc(Cl)c1)Nc1sccc1-c1nc2ccccc2s1,inactive: 5.86%,
Cc1cccc(NC(=O)C(C)Oc2ccc(C)nc2[N+](=O)[O-])c1 (configuration not stated),,"inconclusive [activator, single point]"
CCCCCCSC1=C(C#N)C(c2ccc(O)cc2)CC(=O)N1 (configuration not stated),,"inconclusive [activator, full curve, poor fit]"
COc1cc(OC)cc(-c2cc3nc(C)c(CCC(=O)O)c(C)n3n2)c1,inactive: 5.88%,
Cc1cc(C(=O)Cn2nc(C(=O)O)c3ccccc3c2=O)c(C)n1CCc1ccc(Cl)cc1,inactive: 3.06%,
COc1ccc(C(=O)C(CN2CCCC2)c2ccccc2)cc1 (configuration not stated),inactive: -17.1%,
COc1ccc(-c2csc(C)n2)cc1Br,,"inconclusive [activator, partial curve, poor fit]"
COc1ccc(NC(=O)c2nnn(CC(=O)Nc3cc(C)cc(C)c3)c2N)c(OC)c1,inactive: 0.6%,
OC(c1ccccc1)c1nc(-c2ccccc2)cs1 (configuration not stated),,"inconclusive [activator, partial curve, poor fit]"
Cc1cc2n(n1)C(c1ccc3c(c1)OCO3)Nc1c(C)cccc1-2 (configuration not stated),inactive: -2.84%,
CC(C)c1nnc(NC(=O)COc2ccccc2[N+](=O)[O-])s1,inactive: 12%,

Compound,activation,Potency
CCNC(=S)N1CCC(NC(=O)C2CCCCC2)CC1,,"inconclusive [activator, single point]"
CNCCOc1ccccc1C(C)(C)C,inactive: 17.6%,
Cc1cc(C)n(CCCNCC(O)c2ccccc2)n1 (configuration not stated),,"inconclusive [activator, partial curve, poor fit]"
CCOC(=O)c1[nH]c(C)c(C(=O)c2ccc(C)cc2)c1C,,"inconclusive [activator, single point]"
Cc1cccc(NC(=O)Nc2cccc(C#N)c2)n1,,"inconclusive [activator, single point]"
CCOC(=O)c1cnc(SCc2cccc(C)c2)nc1N,,"inconclusive [activator, single point]"
Nc1ccc(Br)cc1C(=O)O,,"inconclusive [activator, single point]"
COc1ccc(Nc2nnc(SC(C(=O)Nc3cc(C)ccc3C)c3ccccc3)s2)cc1 (configuration not stated),inconclusive: 37% [activator],
O=C(/C=C/c1ccc2c(c1)OCO2)NCCSCc1ccc(Cl)cc1Cl,inactive: -3.19%,
COc1cccc(N=c2oc3cc(O)ccc3cc2C(=O)NCC2CCCO2)c1 (configuration not stated),,"inconclusive [activator, partial curve, poor fit]"
Cc1ccc(C)c(N2CCN(C(=O)c3ccccc3Br)CC2)c1,inactive: 0.837%,
CC(=O)Nc1ccc(S(=O)(=O)N2CCC3(CC2)OCCO3)cc1,inactive: -3.62%,
CCC(=O)Nc1cccc(NC(=O)c2cccc([N+](=O)[O-])c2)c1,,"inconclusive [activator, partial curve, poor fit]"
NC(=O)c1c(NC(=O)c2ccncc2)sc2c1CCCCCC2,,"inconclusive [activator, single point]"
O=C(c1ccc(C(F)(F)F)cc1)N1CCN(S(=O)(=O)c2ccc3c(c2)OCCCO3)CC1,inactive: -7.55%,
CCC1C(=O)CC(c2ccco2)NC1c1ccco1 (configuration not stated),,"inconclusive [activator, partial curve]"
CCOC(=O)C1CCN(c2ncnc3c(C)csc23)CC1,,"inconclusive [activator, partial curve, poor fit]"
CCCCCCCOc1ccc(C2CC(=O)N(C)C2=O)cc1 (configuration not stated),,"inconclusive [activator, single point]"
COc1ccc(N2C(=O)CSC23C(=O)N(Cc2ccccc2F)c2ccccc23)cc1Cl (configuration not stated),,"inconclusive [activator, partial curve, poor fit]"
O=C(N/N=C/c1ccc2c(c1)OCO2)c1ccc2c(c1)OCO2,inactive: 1.58%,
CN(C)c1ccc(N=Nc2nc3ccccc3n2C)cc1,inactive: -9.23%,
CCOC(=O)c1c(C)c(C(=O)Nc2cc(OC)ccc2OC)c(C)n1CC,,"inconclusive [activator, partial curve, poor fit]"
Cc1nc([N+](=O)[O-])c(Br)n1CC(=O)c1ccc(Cl)cc1,inactive: -47.8%,
CCOC(=O)CSc1nc(N)c2c3c(sc2n1)CCCC3,,"inconclusive [activator, single point]"
Cn1nc(C(=O)Nc2cccc(S(=O)(=O)N3CCCC3)c2)c2ccccc2c1=O,,"inconclusive [activator, partial curve, poor fit]"
